# Assay results from PubChem BioAssay AID1345083 (National Center for Advancing Translational Sciences (NCATS), 2018).
# The whole screen tested about 94,000 compounds, of which about 6,200 (6.6%) were called active. The inconclusive results got no clear call from the source; some entries with a clear call stand among them for comparison. Calls follow the shape of the dose curve; as a rule, active = well fitted inhibition curve with a large enough effect; inconclusive = small, poorly fitted or top-dose-only effect; inactive = flat fitted curve, though single readings scatter. Potencies beside an inconclusive call are fits to weak or partial responses and may not hold up.
# Experiment: Cytotoxic Profiling in HEK 293 Cell Line of Diverse Libraries Using Quantitative High-Throughput Screening; also: nearly all actives have a fitted effect of over 60% in size
# Conditions: HEK 293 viability, ATP luminescence (CellTiter-Glo), 48-72 h; activity change, negative = cytotoxicity: at 115 µM (top of the series) unless noted; series mostly up to 115 µM
# Procedure, shortened: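 HEK 293 cells seeded at 250 cells/well were exposed to compound for 48 or 72 hr at 37 degree Celsius. Viability taken as ATP content by CellTiter-Glo luminescence.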
# % is scaled to controls: 0 for no effect and ±100 for the full control effect; potency is read from the fitted curve at half-maximal effect; tags tell the direction and shape of the fitted curve.
Structure (SMILES),Potency,"activity change, negative = cytotoxicity",outcome
O=C(C1CCCN1C(=O)c1ccc(C(F)(F)F)cc1)N1CCC(c2ccccc2)CC1 (configuration not stated),"inconclusive: 44.7 µM [inhibitor, partial curve, poor fit]",–,–
COc1cccc(CC(=O)N2CCC3(CC2)CC(c2nc(C)no2)N(C)C3)c1 (configuration not stated),–,inactive: -4.86%,–
O=C(Cc1ccccn1)NC1CCN(C(=O)c2ccc(-c3cccs3)cc2)CC1,"inconclusive: 89.1 µM [inhibitor, single point]",–,–
COc1ccc(F)cc1-c1ccc(C(=O)NCCCn2ccnc2C(C)C)cn1,"inconclusive: 79.4 µM [inhibitor, partial curve, poor fit]",–,–
O=C1NCc2ccccc2CC12CCCN2Cc1cnc2ccccc2c1 (configuration not stated),"inconclusive: 79.4 µM [inhibitor, single point]",–,–
Cc1noc(C)c1-c1cn(C)c(=O)n2cc(COc3ccc(Cl)cc3)nc12,"inconclusive: 126 µM [inhibitor, single point]",–,–
COc1ccc(OC)c(S(=O)(=O)Nc2nc3c(s2)C[C@]2(C)CC[C@@H]4[C@H](OC(=O)[C@H]4C)[C@H]2[C@@H]3C)c1,"inconclusive: 89.1 µM [inhibitor, single point]",–,–
CC(C)CNc1ccc2c(n1)C(C)(C(=O)NC1CCC(O)CC1)CN(Cc1ccccc1)C2 (configuration not stated),"inconclusive: 56.2 µM [inhibitor, partial curve, poor fit]",–,–
C#CCNC(=O)c1cc(-c2ccc([S+](C)(=O)[O-])cc2)c2cccn2n1,"inconclusive: 79.4 µM [inhibitor, partial curve, poor fit]",–,–
Cc1cccc(C)c1NC(=O)CN1C(=O)C(c2ccccc2)=NC12CCCCC2,"inconclusive: 89.1 µM [inhibitor, single point]",–,–
COc1ccc(CNC(=O)[C@@H](C)C2CC[C@@]3(C)CC[C@H](NC(=O)c4ccc(C#N)cc4)[C@@H](C)[C@@H]3[C@H]2O)cc1 (some centres not stated),"inconclusive: 31.6 µM [inhibitor, full curve]",–,–
c1ccc(CCc2nc3nccc(-c4ccc5c(c4)OCCCO5)n3n2)cc1,"inconclusive: 50.1 µM [inhibitor, partial curve, poor fit]",–,–
Cc1ccc(-c2noc([C@@H]3C[C@H](NS(=O)(=O)c4ccc5ccccc5c4)CN3C)n2)cc1,"inconclusive: 50.1 µM [inhibitor, partial curve, poor fit]",–,–
CC1=C[C@@H](CO)[C@H](C(C)C)C[C@H]1Cc1nnc(-c2ccc(N(C)C)cc2)o1,"inconclusive: 20 µM [inhibitor, full curve, poor fit]",–,–
CC(C)(C)CC(=O)NC1CCN(c2cnn(Cc3ccccc3)c(=O)c2)CC1,"inconclusive: 44.7 µM [inhibitor, partial curve, poor fit]",–,–
Cc1nn(Cc2ccccc2)c(C)c1[C@@H]1C=C[C@@H](NC(=O)Nc2ccccc2)C1,"inconclusive: 28.2 µM [inhibitor, partial curve, poor fit]",–,–
Cc1ncccc1-c1nc2cc(C(=O)N3CCCCC3)ccc2o1,"inconclusive: 44.7 µM [inhibitor, partial curve, poor fit]",–,–
Cc1cn2nc(C(=O)N3CCC(C(=O)NCCc4ccccc4)CC3)cc2c(=O)[nH]1,–,inactive: 0.906%,–
Cn1nc(C2CC2)cc1NC(=O)c1cccc(Br)c1,"inconclusive: 126 µM [inhibitor, single point]",–,–
COc1ccccc1Nc1ccnc(N2CCN(C(=O)Cc3cccc(Cl)c3)CC2)n1,active: 44.7 µM,–,–
CC(=O)N1Cc2ccccc2CC2(CCCN(Cc3ccccc3)C2)C1 (configuration not stated),"inconclusive: 100 µM [inhibitor, single point]",–,–

Structure (SMILES),Potency,"activity change, negative = cytotoxicity",outcome
CCOc1ccc(C(=O)N2CCC(n3cc(-c4nc(C)no4)nn3)C2)cc1 (configuration not stated),–,inactive: 2.35%,–
Cc1ccc2nc3n(c2c1)[C@@H](CNS(=O)(=O)c1ccccc1)COC3,"inconclusive: 79.4 µM [inhibitor, partial curve]",–,–
COc1ccccc1N1CCN(C(=O)CCc2conc2-c2ccccc2F)CC1,"inconclusive: 89.1 µM [inhibitor, single point]",–,–
COc1ccc2nc(C[C@@H]3C[C@@H](C(C)C)[C@H](CNCc4ccc(NC(C)=O)cc4)C=C3C)[nH]c2c1,"inconclusive: 50.1 µM [inhibitor, partial curve, poor fit]",–,–
CCOCCNC(=O)C1CCCN(c2nccc(Nc3ccc(C)cc3)n2)C1 (configuration not stated),"inconclusive: 50.1 µM [inhibitor, partial curve, poor fit]",–,–
O=C(c1ccsc1)N1CCC(Cc2nc(-c3ccncc3)n[nH]2)C1 (configuration not stated),–,inactive: 0.294%,–
O=C(c1cccnc1)N1CCN(c2ccc3nnc(C4CC4)n3n2)CC1,inactive,–,–
Fc1c(F)c(F)c(CN2CCCC3(CCNC3)C2)c(F)c1F (configuration not stated),"inconclusive: 89.1 µM [inhibitor, single point]",–,–
O=C(COc1ccccc1)N1CCCC(n2cc(-c3nc(C4CC4)no3)nn2)C1 (configuration not stated),–,inactive: -1.37%,–
C[S+](=O)([O-])c1cccc(NC(=O)Cc2c[nH]c3ncc(-c4cccnc4)cc23)c1,"inconclusive: 100 µM [inhibitor, partial curve]",–,–
O=C(NC[C@H]1O[C@@H](CC(=O)N2CCN(c3ccccc3)CC2)[C@H](O)[C@@H]1O)Nc1cccc(F)c1,"inconclusive: 63.1 µM [inhibitor, partial curve, poor fit]",–,–
O=C(c1ccncc1)N1CC2CCC(C1)N2Cc1cccc(-c2ccc(F)cc2F)c1,"inconclusive: 39.8 µM [inhibitor, partial curve]",–,–
O=C1N[C@@H]2CCN(C(=O)COc3ccccc3)[C@@H]2C(=O)N1c1ccc(Oc2ccccc2)cc1,–,inactive: 3.84%,–
CCCOCCNC(=O)c1c(C)noc1-c1ccc(OC)cc1,"inconclusive: 56.2 µM [inhibitor, partial curve, poor fit]",–,–
O=C(C1CC1)N1CCn2c(nn(-c3ccc(F)cc3)c2=O)C1,"inconclusive: 12.6 µM [inhibitor, full curve, poor fit]",–,–
CCN1C(=O)CN(C(=O)c2cccc(C)c2)CC12CCOCC2,–,inactive: -14.8%,–
O=C(NCC1Cn2cccc2CN1Cc1ccccc1)Nc1ccccc1 (configuration not stated),"inconclusive: 50.1 µM [inhibitor, partial curve, poor fit]",–,–
O=C(C1CCCCC1)N1CCCC(n2cc(-c3nc(-c4ccccc4)no3)nn2)C1 (configuration not stated),"inconclusive: 39.8 µM [inhibitor, partial curve, poor fit]",–,–
Cc1nn(-c2ccccc2)c2c1C(C1CC1)N(C1CCCN(C(=O)c3ccccc3)C1)C2=O (configuration not stated),"inconclusive: 35.5 µM [inhibitor, partial curve, poor fit]",–,–
CC(C)c1ccc(NC(=O)CN2C(=O)NC3(CCOCC3)C2=O)cc1,–,inactive: -0.16%,–
CC(C)C(=O)Nc1cc(-c2ccncc2)nn1-c1ccccc1,–,–,inactive [at 172 µM]

Structure (SMILES),Potency,"activity change, negative = cytotoxicity",outcome
O=C(O)c1ccnc(-c2ccnc(N3CCCOC(CN4CCCC4)C3)n2)c1 (configuration not stated),–,inactive: 2.13%,–
CC(=O)Nc1ccc(CN(C)Cc2cccn2C)cc1,–,inactive: -4.25% [at 172 µM],–
CCCS(=O)(=O)N1CCC(c2noc(-c3ccccc3)n2)C1 (configuration not stated),"inconclusive: 89.1 µM [inhibitor, single point]",–,–
COc1ccc(CCC(=O)N2CCC(Cc3nc(-c4ccc(OC)cc4)no3)CC2)cc1,"inconclusive: 44.7 µM [inhibitor, partial curve, poor fit]",–,–
CC(=O)NC1(C)CCN(Cc2ccc(-c3ccccc3Oc3ccccc3)cc2)C1 (configuration not stated),active: 56.2 µM,–,–
CN1CCCCCCN(C(=O)CCC2CCCC2)[C@H]2CCC[C@H]2C1=O,"inconclusive: 56.2 µM [inhibitor, partial curve, poor fit]",–,–
CN(CCc1noc(C2CN(Cc3cc(Cl)ccc3F)C2)n1)S(C)(=O)=O,"inconclusive: 50.1 µM [inhibitor, partial curve, poor fit]",–,–
Cc1noc(-c2ccc(OC(F)(F)F)cc2)c1C(=O)NCc1ccsc1,"inconclusive: 79.4 µM [inhibitor, partial curve, poor fit]",–,–
Cc1ccccc1C(=O)N1CCCC(C(=O)N2CCC(N3Cc4cccn4C3=O)CC2)C1 (configuration not stated),–,–,inactive
O=C(NC1CCCCCC1)c1ccc2oc(-c3ccncc3)nc2c1,active: 35.5 µM,–,–
O=C(NCc1ccccc1)C1CC(c2ccccc2)CN(C(=O)c2ccccc2F)C1 (configuration not stated),"inconclusive: 56.2 µM [inhibitor, partial curve, poor fit]",–,–
COc1cc2c(cc1O)NC(=O)CC2c1cn[nH]c1-c1cc(C)ccc1C (configuration not stated),"inconclusive: 89.1 µM [inhibitor, single point]",–,–
COc1ccc(-c2noc(-c3nc(C4CC4)no3)n2)cc1,"inconclusive: 25.1 µM [inhibitor, full curve, poor fit]",–,–
Cc1cccc(OCC(=O)NCc2nnc3ccc(-c4ccc(F)cc4)nn23)c1,–,inactive: -5.32%,–
COc1ccc(CN2CCC3(C2)C(=NC2CCCCC2)NC(=O)N3c2cc(F)cc(F)c2)cc1 (configuration not stated),"inconclusive: 8.91 µM [inhibitor, full curve, poor fit]",–,–
C[S+](=O)([O-])c1cccc(-c2nnc3ccc(C(=O)NCC(F)F)cn23)c1,–,inactive: 1.3%,–
Cc1noc(C)c1C(=O)NC1CCCc2c1[nH]c1c(Cl)cccc21 (configuration not stated),"inconclusive: 44.7 µM [inhibitor, partial curve, poor fit]",–,–
CCN(Cc1cc(C)[nH]n1)CC1CCCN(CCc2cccc(OC)c2)C1 (configuration not stated),"inconclusive: 89.1 µM [inhibitor, single point]",–,–
Cc1ccc(-c2nnc3ccc(NC4CCC4)nn23)nc1,"inconclusive: 141 µM [inhibitor, single point]",–,–
Cc1cccc2c1nc1n2[C@@H](CNC2CCCCC2)COC1,"inconclusive: 56.2 µM [inhibitor, full curve, poor fit]",–,–
